Experimental data as given in patent US7407752B2, “Oligonucleotide complexes for use as anti-viral therapeutics” (priority 2003, dated 2008).

System: HSV-1
Assay: HSV-1 plaque reduction on Vero cells after incubation with TFO and ultraviolet-A radiation
Details: Example 9, 1 μM, two TFOs together, UVA 40 minutes
Protocol: Viral titers were determined by plaque counts on Vero cell monolayers.
3000 PFU/ml of HSV-1 were incubated with 1 μM TFO-3 (SEQ ID 2) at room temperature, N=5 replications per group. Viral killing (as measured by plaque-reduction) was effected by exposing the mixture to ultraviolet-A radiation for 0, 20 and 40 minutes at room temperature. HSV-1 titers were determined by plaque assay on Vero cells. The results were confirmed by a masked observer. The results were calculated as a percent of the unirradiated (0 min.) “virus only” control titers±SEM. Statistical comparisons were made between the “virus only” and “virus+TFO-3 (SEQ ID 2)” groups at each time point using an unpaired two-tailed Student's T-Test.
3000 PFU/ml of HSV-1 was incubated with 1 μM TFO-3 (SEQ ID 2) or a (scrambled) control oligonucleotide. Viral killing was affected by exposing the mixture to ultraviolet-A radiation for 40 min. Results are expressed as percent of the “virus only” control titers±SEM. […]
HSV-1 was incubated with 1 μM TFO-3 (SEQ ID 2) with and without exposure to ultraviolet-A radiation for 40 minutes at room temperature. Results are expressed as mean viral titers±standard errors. […]
HSV-1 was incubated with 1 μM of TFO-1 (SEQ ID 1) and TFO-3 (SEQ ID 2) or their scrambled control oligonucleotides. […] Results are expressed as mean viral titers ±standard error of the mean. […]

Substance: TFO-1 (SEQ ID 1) and TFO-3 (SEQ ID 2): the two anti-HSV-1 TFOs used together (chain 1 GAAGAGGGGGGGGGGAAGAAG; chain 2 GGGAGGAGGGAGGGAAGGAGGGGG; DNA, backbone not given here)
- decrease in viral titers over matching controls: 10 fold
